# Data as given in PubChem BioAssay AID1508642 (National Center for Advancing Translational Sciences (NCATS), 2021).
# Hit rate of the full screen: of about 43,000 compounds, about 200 (0.47%) were called active. Roughly 12% stayed inconclusive and do not appear here. Calls come from the whole dose curve; as a rule, active = well fitted cell-killing curve with a large enough effect; inconclusive = small, poorly fitted or top-dose-only effect, or effect the other way; inactive = flat fitted curve, though single readings scatter. Some of the results follow.
# Assay: Cell viability qHTS assay in S16 Pmp22-F2sN cells; note: nearly all actives have a fitted effect of over 65% in size
# Details: S16 Pmp22-F2sN Schwann cells viability, CellTiter-Glo, 24 h; series mostly up to 57.5 µM; activity change, negative = cytotoxicity: at the top concentration
# In short: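 S16 Pmp22-F2sN Schwann cells (500-1,000/well) in phenol-red-free DMEM with 10% FBS received 23 nL compound by pin tool for 24 h at 37 °C. Viability was then read as CellTiter-Glo luminescence after 15 min at room temperature.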
# % is set by controls: 0 for no effect and ±100 for the full control effect.
row,SMILES,"activity change, negative = cytotoxicity"
1,COCCNC(=O)c1c(NC(=O)c2cc(=O)c3cc(Cl)ccc3o2)sc2c1CCCC2,inactive: -2.5%
2,COC(=O)c1ccccc1NC(=O)N1CCC(n2c(C)nc3cccnc32)CC1,inactive: -3.92%
3,Cc1ccc(NC(=O)N2CCN(C)c3ncccc32)cc1C,inactive: 12.1%
4,O=C(CN1C(=O)COc2ccc(S(=O)(=O)N3CCCCCC3)cc21)NCCc1ccccc1,inactive: 7.21%
5,CC(=O)N1CCN(c2csc3ccc(Br)cc3c2=O)CC1,inactive: 2.79%
6,Cc1ccc(CNC(=O)c2cc(=O)c3cc(C)cc(C)c3o2)cc1,inactive: 10.2%
7,COC(=O)c1ccccc1NC(=O)c1cnc2sc(N3CCOCC3)nn2c1=O,inactive: 7.63%
8,CCC(C)NC(=O)CSc1nc(-c2ccc(F)cc2)cc(C(F)(F)F)n1 (stereo not given),inactive: 28.6%
9,CCc1cccc(C)c1NC(=O)Cn1cc2c(n1)CCCCC2,inactive: -13.2%
10,COc1ccccc1NC(=O)Cn1nnc(C(=O)Nc2ccccc2Br)c1N,inactive: 15.1%
11,CCOc1ccc(NC(=O)CCn2cccn2)cc1,inactive: 2.41%
12,CCCCOC(=O)/C(C#N)=C\c1ccc(-c2ccc(Cl)cc2)o1,inactive: 3.76%
13,CCOc1ccc(NC(=O)C2CCN(S(=O)(=O)c3c(C)noc3/C=C/c3ccco3)CC2)cc1,inactive: 7.02%
14,CCOC(=O)c1ccccc1NC(=O)N1CC(C)Oc2ccc(C)cc21 (stereo not given),inactive: 0.675%
15,COc1cc(NC(=O)C(=O)Nc2ccc3nc4n(c(=O)c3c2)CCCCC4)cc(OC)c1OC,inactive: 20.1%
16,CCc1ccc(CN(C(=O)Nc2cccc(Cl)c2)c2ccccn2)cc1,inactive: 8.79%
17,CCOC(=O)Cn1c(=O)oc2cc(S(=O)(=O)NC(C)c3ccccc3)ccc21 (stereo not given),inactive: 7.9%
18,COc1ccccc1CNC(=O)c1ccc(-n2c(C)cc3c2CCCC3)cc1,inactive: -20%
19,Cc1c(Cl)cccc1NS(=O)(=O)c1ccc(NS(=O)(=O)c2ccc3c(c2)OCCO3)cc1,inactive: 2.92%
20,COc1ccc(Cl)cc1NC(=O)c1cnc(N2CCCCC2)c2ccccc12,inactive: -6.67%
21,O=C(c1ccccc1F)N1c2nc(-c3ccco3)nn2C2(CCCCC2)[C@@H]2CCCC[C@@H]21,inactive: 7.88%
22,COCCNC(=O)c1cnn(-c2cccc(C)c2)c1-n1cccc1,inactive: -1.58%
23,COc1cc2ncc3c(-c4ccccc4)nn(CC(=O)NC4CCCCC4)c3c2cc1OC,inactive: 0.745%
24,CC1CCN(S(=O)(=O)c2cc(C(=O)NCc3ccccc3)n(C)c2)CC1,inactive: 4.71%

row,SMILES,"activity change, negative = cytotoxicity"
1,Cc1nc(N2CCCC2)ncc1C(=O)NCc1ccc(F)cc1,inactive: 2.64%
2,Cc1cn2c(=O)c(S(=O)(=O)Nc3ccc(N4CCOCC4)cc3)c(C)nc2s1,inactive: 1.19%
3,Cc1cc(N2CCC(C(=O)Nc3ccccc3Cl)CC2)n2nc(C)c(-c3ccc(Cl)cc3)c2n1,inactive: 2.34%
4,Fc1cccc(-c2nnn3c2nc(NCc2ccc4c(c2)OCO4)c2ccccc23)c1,inactive: 5.48%
5,COc1ccc(C2=C(C)C(N3CCN(c4ccc(OC)cc4)CC3)=NS2(=O)=O)cc1,inactive: 6.88%
6,CN(C(=O)c1ccc2c(c1)N(Cc1ccc(F)cc1)C(=O)c1ccccc1S2(=O)=O)C1CCCCC1,inactive: 3.72%
7,COc1ccc(C(=O)NNc2ncnc3c2cnn3-c2ccc(C)cc2C)cc1,inactive: 6.66%
8,CCC(CC)C(=O)Nc1nnc(S(=O)(=O)N2c3ccccc3CC2C)s1 (stereo not given),inactive: 6.55%
9,O=C(Nc1ccc(-c2nc3cc(NC(=O)c4ccc(Cl)cc4)ccc3o2)cc1)c1ccc(Cl)cc1,inactive: 1.27%
10,COc1ccc(-c2cc(C(F)(F)F)n3nc(C(=O)Nc4sc5c(c4C(=O)OC(C)C)CCC(C)C5)cc3n2)cc1 (stereo not given),inactive: 23.7%
11,CCCN(CCC)C(=O)C1CCCN(S(=O)(=O)c2cc(Br)cc3c2N(C(=O)CC)CC3)C1 (stereo not given),inactive: 3.36%
12,CCc1ccc(C(=O)NC2=NC(c3cc(OC)ccc3OC)CC(=O)N2)cc1 (stereo not given),inactive: -1.11%
13,Cc1ccc(-c2nn(C)c(=O)c3ccccc23)cc1S(=O)(=O)NCCCN(C)C,inactive: 3.09%
14,CC(=O)Nc1ccc(NC(=O)C(c2ccccc2)N2Cc3ccccc3C2=O)cc1 (stereo not given),inactive: -2.01%
15,COC(=O)c1ccc(-c2nc(-c3ccc(OC)c(OC)c3)no2)cc1,inactive: 6.92%
16,O=S(=O)(c1ccc(Br)cc1)c1nnn2c1nc(NCCc1ccccc1)c1sccc12,inactive: -2.62%
17,Cc1ccc(CCNC(=O)CCn2nc(-c3ccc(Cl)cc3)ccc2=O)cc1,inactive: 3.66%
18,Cc1nc2ccc(S(=O)(=O)NC(C(=O)N3CCN(c4cccc(Cl)c4)CC3)C(C)C)cc2s1 (stereo not given),inactive: 14.7%
19,COc1ccc(N2C(=O)CCSC23C(=O)N(Cc2ccc(F)cc2)c2ccccc23)cc1 (stereo not given),inactive: 10.4%
20,O=C(c1ccc2c(c1)N(Cc1ccc(Cl)cc1)C(=O)c1ccccc1S2(=O)=O)N1CCN(Cc2ccccc2)CC1,inactive: 10.6%
21,Cc1cc(C)cc(NC(=O)CCc2c(C)nc3c(c2C)c(=O)n(C)c(=O)n3C)c1,inactive: 6.62%
22,Cc1ccc(NC(=O)c2sc3nc(-c4ccncc4)ccc3c2N)cc1,inactive: 0.96%
23,CCOc1ccc(S(=O)(=O)c2c(C(=O)c3ccc(C)c(C)c3)cnc3ccccc23)cc1,inactive: 4.96%
24,COc1cc(NC(=O)C(NS(=O)(=O)c2ccc3c(c2)CCCC(=O)N3)C(C)C)cc(OC)c1 (stereo not given),inactive: 0.39%

row,SMILES,"activity change, negative = cytotoxicity"
1,COC(=O)c1sccc1S(=O)(=O)N(CC(=O)Nc1ccc(C)c(F)c1)c1ccc(C)c(C)c1,inactive: -20.7%
2,Cc1ccccc1Cn1c(=O)n(CCc2ccccc2)c(=O)c2sc3ccccc3c21,inactive: -1.09%
3,Cc1ccccc1C(=O)Nc1nnc(S(=O)(=O)N(C)c2ccc(Cl)cc2)s1,inactive: -12.1%
4,O=C(COc1ccc(F)cc1)Nc1ccc(S(=O)(=O)N(Cc2ccccc2)c2ccccc2)cc1,inactive: -3.96%
5,CCc1ccc(CNC(=O)c2sc3nc[nH]c(=O)c3c2C)cc1,inactive: 2.5%
6,COc1ccc(-c2cc(C(C)=O)c(C)n2CCC(=O)Nc2ccc(C)c(Cl)c2)cc1,inactive: -15.1%
7,CCCNc1ncnc2c1c(-c1ccccc1)cn2-c1ccc(OCC)cc1,inactive: -18.5%
8,O=c1cc(CSc2ccccc2)[nH]c2ccc(F)cc12,inactive: -28.5%
9,COc1ccc(NC(=O)CCn2c(-c3ccc(F)cc3)cc(C(C)=O)c2C)c(OC)c1,inactive: -11.8%
10,COc1ccc(OC)c(CNc2ncnc3c2nc2n3CCCC2)c1,inactive: -2.53%
11,CCN(C(=O)Cc1c(C(=O)O)c(C)cn1C)c1cccc(Cl)c1,inactive: -3.16%
12,CCc1c(C)nc(SCc2nc(-c3ccccc3C)no2)[nH]c1=O,inactive: -1.17%
13,Cc1ccc(NC(=O)c2c(C)oc3ccc(O)c(CN(C)Cc4ccccc4)c23)c(C)c1,inactive: -26.7%
14,CCc1ccc(Nc2nnc(-c3cc4cc(OC)ccc4oc3=O)s2)cc1,inactive: 4.82%
15,CCc1cccc(C)c1NC(=O)c1cc(S(=O)(=O)N2CCCCCC2)cn1C,inactive: -0.811%
16,O=C(NC1CC1)c1ccc(Cn2c(SCc3ccc(F)cc3)nc3cccnc32)cc1,inactive: -10.5%
17,COc1ccc(-c2cc(C(F)(F)F)nc(SCCC(=O)Nc3cccc(OC)c3)n2)cc1,inactive: -8.47%
18,Cc1cccc(N2CCN(C(=O)c3cccn3-c3nnc(N4CCCCC4)s3)CC2)c1C,inactive: -29.2%
19,CCc1ccc(NC(=O)c2ccc(NS(=O)(=O)c3c(C)noc3C)cc2)cc1,inactive: -6.96%
20,CCOC(=O)c1ccccc1NC(=O)c1cc2c(s1)-c1ccccc1SC2,inactive: -0.269%
21,CC1=C(c2ccc(Cl)cc2)S(=O)(=O)N=C1N1CCC(C(=O)NCCc2ccco2)CC1,inactive: -19.1%
22,COc1ccc(Br)cc1CNC(=O)CCc1cn(Cc2ccc(C)cc2)c2ccccc12,inactive: 1.14%
23,Cc1scc(CN2CCN(c3ccc(F)cc3)CC2)c1C,inactive: 16%
24,COc1ccccc1N1CCN(S(=O)(=O)CCNC(=O)COc2ccccc2F)CC1,inactive: 4.51%

row,SMILES,"activity change, negative = cytotoxicity"
1,O=C(CCCn1c(=O)c2sccc2n(Cc2ccc(Cl)cc2)c1=O)NCc1ccc2c(c1)OCO2,inactive: -0.893%
2,Cc1ccc(CNc2ncccc2-c2nc(-c3ccc(Cl)cc3)no2)cc1,inactive: 2.29%
3,CC(C)CC(NC(=O)C1CCCCC1)C(=O)Nc1cccc(C(F)(F)F)c1 (stereo not given),inactive: 1.53%
4,CC(C)c1ccc(NC(=O)CN2C(=O)CSc3ccc(S(=O)(=O)N4CCCC4)cc32)cc1,inactive: -3.95%
5,Cc1ccc(N2C(=O)N(CC(=O)C(C)(C)C)c3ccccc3S2(=O)=O)cc1C,inactive: 8.57%
6,CCCSc1nnc2c(n1)OC(c1sccc1C)Nc1ccccc1-2 (stereo not given),inactive: 5.45%
7,CCc1cccc(NC(=O)c2cc3c(=O)n(Cc4ccc(OC)cc4)ccc3nc2C)c1,inactive: -28.8%
8,CCOc1ccc(CCNC(=O)c2ccc(Nc3nc4ccccc4n4nnnc34)cc2)cc1OCC,inactive: -26.9%
9,CCOc1ccc(-c2cc(C(=O)N3CCN(S(=O)(=O)c4cc(Cl)ccc4OC)CC3)[nH]n2)cc1,inactive: -8.24%
10,Cc1ccc(C2CC(=O)Nc3cc4c(cc32)OCCO4)cc1 (stereo not given),inactive: -4.01%
11,CCc1ccc(Cn2c(CNS(=O)(=O)c3ccc(F)c(Cl)c3)nc3cccnc32)cc1,inactive: -0.826%
12,CCOc1ccc(C(=O)c2oc3ccccc3c2NC(=O)Cc2coc3cc(C)cc(C)c23)cc1,inactive: 5.79%
13,CC(=O)N1CCCC1c1nc2ccccc2n1Cc1ccccc1 (stereo not given),inactive: 7.81%
14,Cc1ccc(C)c(N2CCN(C(=O)Cn3ncc4ccsc4c3=O)CC2)c1,inactive: -8.81%
15,CCOC(=O)c1ccc(NC(=O)c2c(N3CCCC3=O)c3cc(OC)ccc3n2C)cc1,inactive: 6.17%
16,Cc1cc2oc(C(=O)N(Cc3ccccc3F)C3CCS(=O)(=O)C3)c(C)c2cc1Cl (stereo not given),inactive: -8.6%
17,Cc1c(Cl)cccc1NC(=O)CN1C(=O)COc2ccc(S(=O)(=O)N3CCOCC3)cc21,inactive: 3.14%
18,CCOC(=O)c1ccc(NC(=O)c2oc(=O)c3ccccc3c2-c2ccccc2)cc1,inactive: 5.69%
19,COc1ccccc1-c1nc2c(c(SCC(=O)Nc3c(C)cc(C)cc3C)n1)Cc1c(CO)cnc(C)c1O2,inactive: 4.05%
20,CCC(=O)N1CCc2cc(S(=O)(=O)CCC(=O)NCc3ccc(C)cc3)ccc21,inactive: 15.4%
21,CCOC(=O)c1c(NC(=O)c2cc3nc(-c4ccc(OC)cc4)cc(C(F)(F)F)n3n2)sc2c1CCC(C)C2 (stereo not given),inactive: -7.75%
22,CCc1cccc(NC(=O)C(Cc2ccccc2)NS(=O)(=O)c2ccc3c(c2)oc(=O)n3C)c1 (stereo not given),inactive: -4.45%
23,CCCCOC(=O)c1ccc(NC(=O)Cn2nnc3sc4c(c3c2=O)CCCC4)cc1,inactive: 11.9%
